Substitutions are numbered along the chain they refer to; changes in the protein carry UniProt numbers. The list shows a part of the results.

T1: RBFOX1 RRM (Homo sapiens, UniProt Q9NWB1 109-208)
T1 sequence: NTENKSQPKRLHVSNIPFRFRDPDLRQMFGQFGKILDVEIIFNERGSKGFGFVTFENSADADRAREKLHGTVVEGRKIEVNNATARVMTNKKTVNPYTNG

B1: CCGACAA (DNA:RNA)
RNA: GGGAGACCGGAAUUCAGAUUGUCCCCGACAAUUAAAUCCCGUCGUAGCCACCA
DNA 1: CAATCTGAATTCCGGTCTCCC
DNA 2: TGGTGGCTACGACGGGATT
B2: AACCACG (DNA:RNA)
RNA: GGGAGACCGGAAUUCAGAUUGUCCAACCACGUUAAAUCCCGUCGUAGCCACCA
DNA 1: CAATCTGAATTCCGGTCTCCC
DNA 2: TGGTGGCTACGACGGGATT
B3: CUUAUCC (DNA:RNA)
RNA: B1 RNA with C26U, G27U, C29U, A30C, A31C
DNA 1: CAATCTGAATTCCGGTCTCCC
DNA 2: TGGTGGCTACGACGGGATT
B4: AGCUCCC (DNA:RNA)
RNA: B2 RNA with A26G, C28U, A29C, G31C
DNA 1: CAATCTGAATTCCGGTCTCCC
DNA 2: TGGTGGCTACGACGGGATT
B5: CGGUCGC (DNA:RNA)
RNA: B1 RNA with C26G, A28U, A30G, A31C
DNA 1: CAATCTGAATTCCGGTCTCCC
DNA 2: TGGTGGCTACGACGGGATT
B6: UAGAACG (DNA:RNA)
RNA: B2 RNA with A25U, C27G, C28A
DNA 1: CAATCTGAATTCCGGTCTCCC
DNA 2: TGGTGGCTACGACGGGATT
B7: CAUCAUC (DNA:RNA)
RNA: B2 RNA with A25C, C27U, C30U, G31C
DNA 1: CAATCTGAATTCCGGTCTCCC
DNA 2: TGGTGGCTACGACGGGATT
B8: UGGGGUC (DNA:RNA)
RNA: B1 RNA with C25U, C26G, A28G, C29G, A30U, A31C
DNA 1: CAATCTGAATTCCGGTCTCCC
DNA 2: TGGTGGCTACGACGGGATT
B9: CGUGUGG (DNA:RNA)
RNA: B2 RNA with A25C, A26G, C27U, C28G, A29U, C30G
DNA 1: CAATCTGAATTCCGGTCTCCC
DNA 2: TGGTGGCTACGACGGGATT
B10: CGAUUUC (DNA:RNA)
RNA: B1 RNA with C26G, G27A, A28U, C29U, A30U, A31C
DNA 1: CAATCTGAATTCCGGTCTCCC
DNA 2: TGGTGGCTACGACGGGATT
B11: CAUGUCA (DNA:RNA)
RNA: B2 RNA with A25C, C27U, C28G, A29U, G31A
DNA 1: CAATCTGAATTCCGGTCTCCC
DNA 2: TGGTGGCTACGACGGGATT
B12: AGAUAUU (DNA:RNA)
RNA: B2 RNA with A26G, C27A, C28U, C30U, G31U
DNA 1: CAATCTGAATTCCGGTCTCCC
DNA 2: TGGTGGCTACGACGGGATT
B13: AGCCCCA (DNA:RNA)
RNA: B2 RNA with A26G, A29C, G31A
DNA 1: CAATCTGAATTCCGGTCTCCC
DNA 2: TGGTGGCTACGACGGGATT
B14: UUCGCGC (DNA:RNA)
RNA: B2 RNA with A25U, A26U, C28G, A29C, C30G, G31C
DNA 1: CAATCTGAATTCCGGTCTCCC
DNA 2: TGGTGGCTACGACGGGATT
B15: GGCCUGA (DNA:RNA)
RNA: B2 RNA with A25G, A26G, A29U, C30G, G31A
DNA 1: CAATCTGAATTCCGGTCTCCC
DNA 2: TGGTGGCTACGACGGGATT
B16: ACAUCAC (DNA:RNA)
RNA: B1 RNA with C25A, G27A, A28U, A31C
DNA 1: CAATCTGAATTCCGGTCTCCC
DNA 2: TGGTGGCTACGACGGGATT
B17: UAGCAAU (DNA:RNA)
RNA: B2 RNA with A25U, C27G, C30A, G31U
DNA 1: CAATCTGAATTCCGGTCTCCC
DNA 2: TGGTGGCTACGACGGGATT
B18: GGUUGCC (DNA:RNA)
RNA: B2 RNA with A25G, A26G, C27U, C28U, A29G, G31C
DNA 1: CAATCTGAATTCCGGTCTCCC
DNA 2: TGGTGGCTACGACGGGATT
B19: AAGCUUA (DNA:RNA)
RNA: B2 RNA with C27G, A29U, C30U, G31A
DNA 1: CAATCTGAATTCCGGTCTCCC
DNA 2: TGGTGGCTACGACGGGATT
B20: GUUUGGU (DNA:RNA)
RNA: GGGAGACCGGAAUUCAGAUUGUCCGUUUGGUUUAAAUCCCGUCGUAGCCACCA
DNA 1: CAATCTGAATTCCGGTCTCCC
DNA 2: TGGTGGCTACGACGGGATT
B21: UAGCCAC (DNA:RNA)
RNA: B1 RNA with C25U, C26A, A28C, A31C
DNA 1: CAATCTGAATTCCGGTCTCCC
DNA 2: TGGTGGCTACGACGGGATT
B22: AUAUUCC (DNA:RNA)
RNA: B2 RNA with A26U, C27A, C28U, A29U, G31C
DNA 1: CAATCTGAATTCCGGTCTCCC
DNA 2: TGGTGGCTACGACGGGATT
B23: GCUGGCA (DNA:RNA)
RNA: B20 RNA with U26C, U28G, G30C, U31A
DNA 1: CAATCTGAATTCCGGTCTCCC
DNA 2: TGGTGGCTACGACGGGATT
B24: GGAUGUU (DNA:RNA)
RNA: B20 RNA with U26G, U27A, G30U
DNA 1: CAATCTGAATTCCGGTCTCCC
DNA 2: TGGTGGCTACGACGGGATT
B25: ACGCACC (DNA:RNA)
RNA: B2 RNA with A26C, C27G, G31C
DNA 1: CAATCTGAATTCCGGTCTCCC
DNA 2: TGGTGGCTACGACGGGATT
B26: AUUUUUU (DNA:RNA)
RNA: B20 RNA with G25A, G29U, G30U
DNA 1: CAATCTGAATTCCGGTCTCCC
DNA 2: TGGTGGCTACGACGGGATT
B27: CCGCGGC (DNA:RNA)
RNA: B1 RNA with A28C, C29G, A30G, A31C
DNA 1: CAATCTGAATTCCGGTCTCCC
DNA 2: TGGTGGCTACGACGGGATT
B28: CAUCUGA (DNA:RNA)
RNA: B2 RNA with A25C, C27U, A29U, C30G, G31A
DNA 1: CAATCTGAATTCCGGTCTCCC
DNA 2: TGGTGGCTACGACGGGATT
B29: CAAUCUA (DNA:RNA)
RNA: B1 RNA with C26A, G27A, A28U, A30U
DNA 1: CAATCTGAATTCCGGTCTCCC
DNA 2: TGGTGGCTACGACGGGATT
B30: AGGCGCU (DNA:RNA)
RNA: B2 RNA with A26G, C27G, A29G, G31U
DNA 1: CAATCTGAATTCCGGTCTCCC
DNA 2: TGGTGGCTACGACGGGATT
B31: GGGCUGA (DNA:RNA)
RNA: B1 RNA with C25G, C26G, A28C, C29U, A30G
DNA 1: CAATCTGAATTCCGGTCTCCC
DNA 2: TGGTGGCTACGACGGGATT

This experiment addresses T1, RBFOX1 RRM. Nature of the experiment: EMSA; HiTS-Eq, 1 nM pool, 10 min; buffer printed only for the single-RNA assays: 10 mM Tris pH 7.5, 150 mM NaCl, 3.4 mM EDTA, 0.001% NP-40, 30 C. The note with it: tags: His6 N-terminal (pET28a); label: 5' 32P. The gist of the method:
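Purified RbFox RRM, wild type or mutant, was incubated for 10 min in 50 µL with 1 nM of a 5′-radiolabelled RNA pool carrying 7 randomized nucleotides, whose flanks were annealed to DNA oligonucleotides, over a series of increasing protein concentrations. Unbound RNA was resolved on 8% native PAGE, cut out, reverse-transcribed, barcoded by PCR and sequenced on an Illumina HiSeq 2500. Relative association constants were derived from changes in read counts for each RNA species versus the control reaction and normalised to the cognate motif.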
With B1, the binding signal was 0.00204 KA relative to UGCAUGU. Under B2 stands 0.00105 KA relative to UGCAUGU. Under B3 stands 0.0009 KA relative to UGCAUGU; under B4, 0.00251 KA relative to UGCAUGU; under B5, 0.00974 KA relative to UGCAUGU. To B6 belongs 0.017 KA relative to UGCAUGU. As for B7, the binding signal was 0.000831 KA relative to UGCAUGU. Regarding B8, the binding signal was 0.0387 KA relative to UGCAUGU.

For B9, the binding signal is 0.00978 KA relative to UGCAUGU. As for B10, the binding signal is 0.00946 KA relative to UGCAUGU. B11: the binding signal is 0.00534 KA relative to UGCAUGU. Turning to B12, the binding signal is 0.00865 KA relative to UGCAUGU. As to B13, the binding signal was 0.00108 KA relative to UGCAUGU.

Regarding B14, the binding signal is 0.014 KA relative to UGCAUGU.

As for B15, the binding signal is 0.0134 KA relative to UGCAUGU. As for B16, the binding signal is 0.00395 KA relative to UGCAUGU. In the case of B17, the binding signal is 0.00857 KA relative to UGCAUGU. For B18, the binding signal was 0.0278 KA relative to UGCAUGU. Under B19 stands 0.00275 KA relative to UGCAUGU; under B20, 0.0232 KA relative to UGCAUGU. B21: the binding signal is 0.00391 KA relative to UGCAUGU. As to B22, the binding signal was 0.000456 KA relative to UGCAUGU. With B23, the binding signal is 0.0266 KA relative to UGCAUGU.

In the case of B24, the binding signal was 0.0216 KA relative to UGCAUGU. In the case of B25, the binding signal was 0.00708 KA relative to UGCAUGU.

For B26, the binding signal is 0.007 KA relative to UGCAUGU. On to B27, for which the binding signal is 0.00923 KA relative to UGCAUGU. On to B28, for which the binding signal was 0.00898 KA relative to UGCAUGU. On to B29, for which the binding signal was 0.00161 KA relative to UGCAUGU.

Take B30: the binding signal was 0.0107 KA relative to UGCAUGU. For B31, the binding signal is 0.0201 KA relative to UGCAUGU.

Source of the values: article PMC9911399, “Two distinct binding modes provide the RNA-binding protein RbFox with extraordinary sequence specificity”.
